The values below are quoted from earlier work in publication PMC10714828, “Proteomic analysis of anti-MRSA activity of caerin 1.1/1.9 in a murine skin infection model and their in vitro anti-biofilm effects against Acinetobacter baumannii” (Microbiology Spectrum, 2023).

For this data set the following is noted: cited from earlier work. An excerpt: Naturally derived host defense peptides form the first line against bacteria, protozoa, fungi, and virus infection ([16], [17]). Antimicrobial peptides (AMPs) have the advantage of multiple functions, such as inhibition of bacteria adhesion, wide spectrum of bacterial killing, quorum sensing, and the ability to inhibit the production of extracellular polymeric substances by bacteria ([18]). In addition, AMPs produce less bacterial resistance than conventional antibiotics, and may show activities against MDR bacterial strains ([19]). More than 200 host defense peptides have been isolated and id ...

Regarding GLFGVLGSIAKHVLPHVVPVIAEKL-NH2 [F3], the heat stability result was “heat resistant”.

As for GLLSVLGSVAKHVLPHVVPVIAEHL-NH2 [F1], the heat stability entry was “heat resistant”.
